The source of these data is patent publication US6664269B2, “Isoquinolinone derivatives” (Maybridge plc, priority 2001, dated 2003).

Broadly, the IC50 is the concentration that inhibits the measured activity by half.

This assay concerns the target Mammalian PARP, isolated from Hela cell nuclear extract (Homo sapiens, UniProt P09874). Briefly: PARP inhibition assay (FlashPlate, 3H-NAD incorporation). Conditions: concentration at which 50% of the enzyme activity is inhibited; range normally 10 μM down to 0.01 μM; NAD 5 μM. The assay is classed as biochemical. As for the experimental part:
In order to assess the inhibitory action of the compounds, the following assay was used to determine IC50 values.
All compounds were diluted in DMSO and gave final assay concentrations of between 10 and 0.01 μM, with the DMSO being at a final concentration of 1% per well. The total assay volume per well was 40 μl.
After 10 minutes incubation at 30° C. the reactions were initiated by the addition of a 10 μl reaction mixture, containing NAD (5 μM), ^3H-NAD and 30mer double stranded DNA-oligos. Designated positive and negative reaction wells were done in combination with compound wells (unknowns) in order to calculate % enzyme activities. The plates were then shaken for 2 minutes and incubated at 30° C. for 45 minutes.
Following the incubation, the reactions were quenched by the addition of 50 μl 30% acetic acid to each well. The plates were then shaken for 1 hour at room temperature.
The plates were transferred to a TopCount NXT (TRADE MARK) (Packard, UK) for scintillation counting. Values recorded are counts per minute (cpm) following a 30 second counting of each well.
The % enzyme activity for each compound is then calculated using the following equation: [formula]
The results are detailed below as IC50 values (the concentration at which 50% of the enzyme activity is inhibited), which are determined over a range of different concentrations, normally from 10 μM down to 0.01 μM. Such IC50 values are used as comparative values to identify increased compound potencies.
With `O=c1[nH]c(CCc2ccccc2)cc2ccccc12` [Compound 2, 3-(2-Phenylethyl)-1-isoquinolinone], the IC50 was found to be 580 nM.

With `COc1cccc(Cc2cc3ccccc3c(=O)[nH]2)c1` [Compound 4, 3-(3-Methoxybenzyl)-1-isoquinolinone], the IC50 worked out at 8500 nM. On to `O=c1[nH]c(Cc2cccc(O)c2)cc2ccccc12` [Compound 7, 3-(3-hydroxybenzyl)isoquinolinone], for which the IC50 was determined as 1800 nM.
